Experimental data taken from patent US20230312684A1 (PINETREE THERAPEUTICS, published 2023).

B1: SEQ ID NO: 114, b1-Fc (NRP1, K373E, single b1) (Fc fusion)
chain: EDFKCMEALGMESGEIHSDQITASSQYSTNWSAERSRLNYPENGWTPGEDSYREWIQVDLGLLRFVTAVGTQGAISKETKKKYYVKTYKIDVSSNGEDWITIEEGNKPVLFQGNTNPTDVVVAVFPKPLITRFVRIKPATWETGISMRFEVYGCGGGGSGGGGSGGGGSGGGGS[human IgG1 Fc left out]
B2: SEQ ID NO: 137, b1-Fc-b1 (NRP1, WT) (Fc fusion)
chain: EDFKCMEALGMESGEIHSDQITASSQYSTNWSAERSRLNYPENGWTPGEDSYREWIQVDLGLLRFVTAVGTQGAISKETKKKYYVKTYKIDVSSNGEDWITIKEGNKPVLFQGNTNPTDVVVAVFPKPLITRFVRIKPATWETGISMRFEVYGCGGGGSGGGGSGGGGSGGGGS[human IgG1 Fc left out]GGGGSGGGGSGGGGSGGGGSCMEALGMESGEIHSDQITASSQYSTNWSAERSRLNYPENGWTPGEDSYREWIQVDLGLLRFVTAVGTQGAISKETKKKYYVKTYKIDVSSNGEDWITIKEGNKPVLFQGNTNPTDVVVAVFPKPLITRFVRIKPATWETGISMRFEVYGCEVEA
B3: SEQ ID NO: 133, b1-Fc-b1 (NRP1, K373E) (Fc fusion)
chain: EDFKCMEALGMESGEIHSDQITASSQYSTNWSAERSRLNYPENGWTPGEDSYREWIQVDLGLLRFVTAVGTQGAISKETKKKYYVKTYKIDVSSNGEDWITIEEGNKPVLFQGNTNPTDVVVAVFPKPLITRFVRIKPATWETGISMRFEVYGCGGGGSGGGGSGGGGSGGGGS[human IgG1 Fc left out]GGGGSGGGGSGGGGSGGGGSCMEALGMESGEIHSDQITASSQYSTNWSAERSRLNYPENGWTPGEDSYREWIQVDLGLLRFVTAVGTQGAISKETKKKYYVKTYKIDVSSNGEDWITIEEGNKPVLFQGNTNPTDVVVAVFPKPLITRFVRIKPATWETGISMRFEVYGCEVEA
B4: SEQ ID NO: 122, b1b2-Fc (NRP1, WT, single b1b2) (Fc fusion)
chain: EDFKCMEALGMESGEIHSDQITASSQYSTNWSAERSRLNYPENGWTPGEDSYREWIQVDLGLLRFVTAVGTQGAISKETKKKYYVKTYKIDVSSNGEDWITIKEGNKPVLFQGNTNPTDVVVAVFPKPLITRFVRIKPATWETGISMRFEVYGCKITDYPCSGMLGMVSGLISDSQITSSNQGDRNWMPENIRLVTSRSGWALPPAPHSYINEWLQIDLGEEKIVRGIIIQGGKHRENKVFMRKFKIGYSNNGSDWKMIMDDSKRKAKSFEGNNNYDTPELRTFPALSTRFIRIYPERATHGGLGLRMELLGCGGGGSGGGGS[human IgG1 Fc left out]
B5: SEQ ID NO: 136, b1b1b1-Fc (NRP1, WT) (Fc fusion)
chain: EDFKCMEALGMESGEIHSDQITASSQYSTNWSAERSRLNYPENGWTPGEDSYREWIQVDLGLLRFVTAVGTQGAISKETKKKYYVKTYKIDVSSNGEDWITIKEGNKPVLFQGNTNPTDVVVAVFPKPLITRFVRIKPATWETGISMRFEVYGCGGGGSGGGGSGGGGSGGGGSCMEALGMESGEIHSDQITASSQYSTNWSAERSRLNYPENGWTPGEDSYREWIQVDLGLLRFVTAVGTQGAISKETKKKYYVKTYKIDVSSNGEDWITIKEGNKPVLFQGNTNPTDVVVAVFPKPLITRFVRIKPATWETGISMRFEVYGCGGGGSGGGGSGGGGSGGGGSCMEALGMESGEIHSDQITASSQYSTNWSAERSRLNYPENGWTPGEDSYREWIQVDLGLLRFVTAVGTQGAISKETKKKYYVKTYKIDVSSNGEDWITIKEGNKPVLFQGNTNPTDVVVAVFPKPLITRFVRIKPATWETGISMRFEVYGCGGGGSGGGGSGGGGSGGGGS[human IgG1 Fc left out]
B6: SEQ ID NO: 116, b1b1b1-Fc (NRP1, K373E, triple b1) (Fc fusion)
chain: B5 chain with K103E, K273E, K443E
B7: SEQ ID NO: 135, b1b1-Fc (NRP1, WT) (Fc fusion)
chain: EDFKCMEALGMESGEIHSDQITASSQYSTNWSAERSRLNYPENGWTPGEDSYREWIQVDLGLLRFVTAVGTQGAISKETKKKYYVKTYKIDVSSNGEDWITIKEGNKPVLFQGNTNPTDVVVAVFPKPLITRFVRIKPATWETGISMRFEVYGCGGGGSGGGGSGGGGSGGGGSCMEALGMESGEIHSDQITASSQYSTNWSAERSRLNYPENGWTPGEDSYREWIQVDLGLLRFVTAVGTQGAISKETKKKYYVKTYKIDVSSNGEDWITIKEGNKPVLFQGNTNPTDVVVAVFPKPLITRFVRIKPATWETGISMRFEVYGCGGGGSGGGGSGGGGSGGGGS[human IgG1 Fc left out]
B8: SEQ ID NO: 115, b1b1-Fc (NRP1, K373E, double b1) (Fc fusion)
chain: B7 chain with K103E, K273E

What follows are binders tested against T1, Recombinant RSV F protein (Octet assays of Examples 14 and 16) (respiratory syncytial virus) (assay: BLI (Octet Red 96), RSV F glycoprotein).
T1 construct: also called Recombinant RSV Protein; respiratory syncytial virus (RSV) F glycoprotein

Row | Binder | binding result
1 | B1 | no binding

Each binder was assayed against T1, Recombinant RSV F protein (Octet assays …) (assay: not given).

Row | Binder | Kd [nM]
2 | B2 | < 1
3 | B3 | < 1
4 | B4 | < 1
5 | B5 | < 1
6 | B6 | < 1
7 | B7 | < 1
8 | B8 | < 1

Changes are numbered by the printed parent chain. Names may count otherwise.
